Source: the supplement of paper PMC4967469
A lower IC50 marks a more sensitive line; a limit (>, <) means that the fit lies beyond the doses tested. The AUC spans the tested range (256-fold, ending at the top dose) of the same fit; it is 1 without any effect and falls as sensitivity rises. For part of these data: A top dose marked as inferred was derived from the fitted curves, not read from the paper. For part of these data: Where an entry number is given, a second screen of the drug exists; the two often differ.

Key:
Assay in all cases: Viability of human cancer cell lines after 72 h of drug (GDSC screen)
PHA-793887 = compound: CC(C)CC(=O)Nc1n[nH]c2c1CN(C(=O)C1CCN(C)CC1)C2(C)C [PHA-793887]; settings: top dose 10.24 µM
Description: (§1)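 Human cancer cell lines in 384-well plates, medium with 10% serum, drug for 72 h over a 256-fold dose range (nine 2-fold or five 4-fold steps up to the top dose). Adherent lines were fixed and stained with the nucleic acid dye Syto60, suspension lines read with resazurin; signal relative to control wells, capped at 0 and 100%. One two-parameter sigmoid per drug and line, fitted in a mixed model over all curves with the slope shared within a line.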

AZD-0530 = compound: CN1CCN(CCOc2cc(OC3CCOCC3)c3c(Nc4c(Cl)ccc5c4OCO5)ncnc3c2)CC1 [AZD-0530]; settings: top dose 2 µM
Description: as §1

PLX4720 = compound: CCCS(=O)(=O)Nc1ccc(F)c(C(=O)c2c[nH]c3ncc(Cl)cc23)c1F [PLX4720]; settings: top dose 10 µM
Description: as §1

Y-39983 = compound: C[C@@H](N)c1ccc(C(=O)Nc2ccnc3[nH]ccc23)cc1 [Y-39983]; settings: top dose 20 µM; top dose inferred
Description: as §1

Epothilone B = compound: C/C(=C\c1csc(C)n1)[C@@H]1C[C@@H]2O[C@]2(C)CCC[C@H](C)[C@H](O)[C@@H](C)C(=O)C(C)(C)[C@@H](O)CC(=O)O1 [Epothilone B]; settings: top dose 0.032 µM; top dose inferred
Description: as §1

Pyrimethamine = compound: CCc1nc(N)nc(N)c1-c1ccc(Cl)cc1 [Pyrimethamine]; settings: top dose 20 µM; top dose inferred
Description: as §1

Imatinib = compound: Cc1ccc(NC(=O)c2ccc(CN3CCN(C)CC3)cc2)cc1Nc1nccc(-c2cccnc2)n1 [Imatinib]; settings: top dose 2 µM
Description: as §1

TPCA-1 = compound: NC(=O)Nc1sc(-c2ccc(F)cc2)cc1C(N)=O [TPCA-1]; settings: top dose 20 µM
Description: as §1

[1] = screen: GDSC drug entry 1371, top dose inferred

| Cell Line | AUC (PHA-793887) | IC50 (PHA-793887) [µM] | AUC (AZD-0530) | IC50 (AZD-0530) [µM] | AUC (PLX4720; screen: GDSC drug entry 1036) | IC50 (PLX4720; screen: GDSC drug entry 1036) [µM] | AUC (PLX4720; [1]) | IC50 (PLX4720; [1]) [µM] | AUC (Y-39983) | IC50 (Y-39983) [µM] | AUC (Epothilone B) | IC50 (Epothilone B) [µM] | AUC (Pyrimethamine) | IC50 (Pyrimethamine) [µM] | AUC (Imatinib) | IC50 (Imatinib) [µM] | AUC (TPCA-1) | IC50 (TPCA-1) [µM] |
| --- | --- | --- | --- | --- | --- | --- | --- | --- | --- | --- | --- | --- | --- | --- | --- | --- | --- | --- |
| ALL-PO (lymphoblastic leukaemia, suspension) | 0.417 | 0.373 | 0.966 | > 2 | 0.781 | 4.4 | 0.977 | > 10 | 0.844 | 15.6 | 0.456 | 0.00151 | 0.485 | 1.13 | 0.926 | > 2 | 0.321 | 0.383 |
| AM-38 (glioma, semi-adherent) | 0.847 | 7.81 | 0.981 | > 2 | 0.963 | > 10 | 0.985 | > 10 | 0.904 | > 20 | 0.732 | 0.00928 | 0.973 | > 20 | 0.984 | > 2 | 0.745 | 6.4 |
| AMO-1 (haematopoietic neoplasm, suspension) | 0.612 | 1.24 | 0.985 | > 2 | 0.991 | > 10 | 0.99 | > 10 | 0.881 | 15.9 | 0.539 | 0.00251 | 0.861 | 13.1 | 0.99 | > 2 | 0.82 | 9.46 |
| ATN-1 (T-cell lymphoblastic leukaemia, suspension) | 0.755 | 3.26 | 0.969 | > 2 | 0.37 | 0.28 | 0.951 | > 10 | 0.91 | > 20 | 0.614 | 0.00404 | 0.538 | 1.58 | 0.98 | > 2 | 0.404 | 0.693 |
| BB65-RCC (kidney, adherent) | 0.982 | > 10.2 | 0.928 | > 2 | – | – | 0.842 | 8.62 | 0.966 | > 20 | 0.377 | 0.00087 | 0.883 | > 20 | 0.98 | > 2 | 0.939 | > 20 |
| CA46 (Burkitt lymphoma, suspension) | 0.402 | 0.338 | 0.98 | > 2 | 0.964 | > 10 | 0.942 | > 10 | 0.777 | 8.64 | 0.792 | 0.0156 | 0.952 | > 20 | 0.984 | > 2 | 0.636 | 3.05 |
| CESS (acute myeloid leukaemia, suspension) | 0.388 | 0.331 | 0.99 | > 2 | 0.969 | > 10 | 0.953 | > 10 | 0.803 | 8.27 | 0.581 | 0.00323 | 0.749 | – | 0.99 | > 2 | 0.664 | 3.32 |
| CGTH-W-1 (thyroid, adherent) | 0.876 | 10.1 | 0.926 | > 2 | 0.959 | > 10 | 0.985 | > 10 | 0.981 | > 20 | 0.571 | 0.00312 | 0.835 | 13 | 0.597 | 0.23 | 0.889 | > 20 |
| COLO-800 (melanoma, adherent) | 0.811 | 5.26 | 0.958 | > 2 | 0.988 | > 10 | 0.783 | 4.1 | 0.974 | > 20 | 0.862 | 0.026 | 0.894 | > 20 | 0.98 | > 2 | 0.939 | > 20 |
| COR-L88 (small cell lung carcinoma, adherent) | 0.884 | > 10.2 | 0.973 | > 2 | 0.982 | > 10 | 0.971 | > 10 | 0.971 | > 20 | 0.928 | > 0.032 | 0.904 | > 20 | 0.96 | > 2 | 0.867 | > 20 |
| COR-L279 (small cell lung carcinoma, suspension) | 0.399 | 0.35 | 0.988 | > 2 | 0.991 | > 10 | 0.957 | > 10 | 0.991 | > 20 | 0.763 | 0.0103 | 0.77 | 6.81 | 0.99 | > 2 | 0.884 | 17.5 |
| CP67-MEL (melanoma, adherent) | – | – | 0.95 | > 2 | – | – | – | – | – | – | – | – | – | – | 0.95 | > 2 | – | – |
| CRO-AP2 (B-cell lymphoma, suspension) | – | – | 0.99 | > 2 | 0.983 | > 10 | 0.989 | > 10 | – | – | – | – | 0.865 | 13.9 | 0.99 | > 2 | – | – |
| CTB-1 (B-cell lymphoma, suspension) | 0.472 | 0.524 | 0.915 | > 2 | 0.857 | > 10 | 0.907 | > 10 | 0.789 | 12.6 | 0.756 | 0.0147 | 0.876 | > 20 | 0.971 | > 2 | 0.411 | 0.654 |
| D-336MG (glioma, adherent) | 0.824 | 8.5 | 0.711 | 0.592 | 0.981 | > 10 | 0.937 | > 10 | 0.85 | > 20 | – | – | 0.974 | > 20 | 0.96 | > 2 | 0.905 | > 20 |
| D-502MG (glioma, adherent) | 0.955 | > 10.2 | 0.971 | > 2 | 0.901 | > 10 | 0.953 | > 10 | 0.957 | > 20 | 0.884 | > 0.032 | 0.949 | > 20 | 0.971 | > 2 | 0.862 | > 20 |
